Test results: PubChem BioAssay (NCATS)
The other results are listed elsewhere or left out. Shown are side measurements of this screen, not its main read-out; they come without a call. Most of these compounds were active or inconclusive in the main read-out, so they are no random draw. Potencies come from curve fits of mixed quality, noted in brackets.

Experiment: qHTS Assay for Lipid Storage Modulators (AID 1519)
Conditions: Drosophila S3 cells, BODIPY lipid droplet/cell ratio, laser cytometry, cells loaded with oleic acid; for AC50: measured here: lipid (BODIPY) channel AC50
Procedure, shortened: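 Cells seeded at 5,000 per well were treated with compounds over a concentration series and loaded with oleic acid (400 uM, as added). Lipid droplet fluorescence (488 nm excitation, 500-530 nm channel) was read by laser-scanning cytometry and normalized to 20 uM Triacsin C.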

[1] = measured here: cell count channel max response
[2] = measured here: lipid channel max response
Tags give direction and shape of the fitted curve.

Compound | max response [1] [%] | AC50 | max response [2] [%]
O=C(c1ccncc1)N1CCC[C@@]2(CCN(Cc3cc(C(F)(F)F)cc(C(F)(F)F)c3)C2)C1 | 12.7 | 2240 nM [rising, partial curve, poor fit] | 22.3
O=C(Oc1ccccc1)N1CCC[C@@]2(CCN(c3ccccn3)C2)C1 | 24.5 | 2820 nM [rising, full curve] | 33.1
O=c1c(CCc2ccccc2)nc2cnc(Nc3ccccc3)nc2n1C[C@H]1CCCO1 | 27.2 | 355 nM [rising, partial curve, poor fit] | -33.2
O=C(c1cc(C(F)(F)F)cc(C(F)(F)F)c1)N1CCC2(CC1)CN(Cc1ccncc1)C2 | 15.6 | 12.6 nM [rising, full curve, poor fit] | 20.1
